61 molecules from publication PMC6919601, “Identification of Plasmodium dipeptidyl aminopeptidase allosteric inhibitors by high throughput screening” (PLoS ONE, 2019) can be followed below.

The whole screen tested about 110,000 compounds, of which about 230 (0.21%) showed an effect of 50% or more. This is one part of the list.
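Also: 30 min substrate incubation versus DMSO and 10 µM JCP410 controls.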

The target of this test is DPAP1 (Plasmodium falciparum, UniProt Q8IIJ9). The test can be described thus: primary screen, percent inhibition; read by cleavage of a fluorogenic dipeptide substrate; higher = more effect of the substance. Details: species or system P. falciparum D10 trophozoite lysates; single well.
Chain of DPAP1 (Q8IIJ9 whole entry, looked up): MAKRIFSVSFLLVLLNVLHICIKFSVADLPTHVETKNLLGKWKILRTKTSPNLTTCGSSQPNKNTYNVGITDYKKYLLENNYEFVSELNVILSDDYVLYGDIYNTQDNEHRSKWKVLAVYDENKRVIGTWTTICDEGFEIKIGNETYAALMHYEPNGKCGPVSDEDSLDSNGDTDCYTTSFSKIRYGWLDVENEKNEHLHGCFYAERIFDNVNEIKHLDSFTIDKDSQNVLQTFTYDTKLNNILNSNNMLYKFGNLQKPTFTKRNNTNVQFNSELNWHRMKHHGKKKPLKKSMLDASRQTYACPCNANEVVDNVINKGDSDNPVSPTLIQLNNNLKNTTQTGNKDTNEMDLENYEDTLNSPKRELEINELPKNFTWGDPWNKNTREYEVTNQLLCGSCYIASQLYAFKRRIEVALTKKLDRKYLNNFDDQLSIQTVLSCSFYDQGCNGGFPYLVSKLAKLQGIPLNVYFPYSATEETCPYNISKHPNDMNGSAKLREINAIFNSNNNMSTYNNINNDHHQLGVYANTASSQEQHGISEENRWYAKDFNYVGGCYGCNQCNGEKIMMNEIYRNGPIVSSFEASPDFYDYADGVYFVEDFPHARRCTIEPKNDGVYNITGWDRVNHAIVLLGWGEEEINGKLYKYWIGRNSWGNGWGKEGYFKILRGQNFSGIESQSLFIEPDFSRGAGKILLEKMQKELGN
Regarding `CC(/N=C/c1nc2ccccc2n1C)C12CC3CC(CC(C3)C1)C2` (stereo not shown), the “% Inhibition @ 10 uM” value came to 7.24%. Then `Cc1ccc(C(=O)N/C(=C/c2ccc(Cl)cc2)C(=O)NCCC(=O)O)cc1`, with -7.15%; and `Cc1cccc(NC(=O)C2CCCN2C(=O)OCc2ccccc2)n1` (stereo not shown), with -2.39%; and `Cc1nn(C(C)C(=O)N2CCC3(CC2)OCCO3)c(=O)c2c1sc1ccccc12` (stereo not shown), with 0.544%. Then `COc1ccc(CN2CCCCCC2)c(C)c1C`, with -0.127%. The result for `CCOc1ccc(NC(=O)CN(c2ccc(Br)cc2)S(C)(=O)=O)cc1` reads 2.02%. Consider `C=CCc1cccc2cc(C(=O)N3CCN(C(=O)c4ccccc4)CC3)c(=O)oc12`, for which the “% Inhibition @ 10 uM” value came to 0.484%. Then `CCOC(=O)N1CCN(C(=O)N[C@@H](CSCc2ccccc2)C(=O)NCC#N)CC1`, with 3.1%.

As for `Cc1ccnc(NS(=O)(=O)c2ccc(NC(=O)c3ccc(Br)o3)cc2)n1`, the “% Inhibition @ 10 uM” value is reported as 0.331%.

For the molecule `COc1ccc(CCCC(=O)O)c(C)c1`, the “% Inhibition @ 10 uM” value is listed as -3.27%. As for `CCOCCCNC(=O)c1[nH]c2cc(OC)ccc2c1Sc1ccc(Cl)cc1`, the “% Inhibition @ 10 uM” value is listed as -3.6%.

Take `COC(=O)CC1(c2ccccc2)C(=O)c2ccccc2C1=O`: the “% Inhibition @ 10 uM” value is given as -2.42%. Then `CCOC(=O)N(C)c1c(N)n(Cc2ccccc2)c(=O)[nH]c1=O`, with -5.13%; and `CCOc1ccc(C(=O)N2CCN(Cc3ccccc3)CC2)cc1`, with 2.93%. Then `O=C(Nc1cccc(C(F)(F)F)c1)C(=O)NC1CCCCC1`, with -4.01%. The result for `CCc1ccc(C2c3c(oc4cc(C)c(C)cc4c3=O)C(=O)N2CCCN(C)C)cc1` (stereo not shown) reads 2.31%; that for `COc1cc(C2CC(=O)N3CN(C4CCCCC4)CSC3=C2C#N)cc(OC)c1OC` (stereo not shown), 2.14%. Regarding `CC(=O)N1N=C2c3ccccc3OCC2C1c1ccccc1` (stereo not shown), the “% Inhibition @ 10 uM” value is listed as 1.92%. Then `Cc1nnc(C)n1/N=C/c1c(O)ccc2ccccc12`, with 7.75%.

Turning to `N=c1c2c3c(sc2ncn1Cc1ccccc1)CCCC3`, the “% Inhibition @ 10 uM” value is listed as -3.4%. Then `O=C1NC(=O)N(Cc2ccccc2)C(=O)/C1=C/c1cn(Cc2ccccc2)c2ccccc12`, with 5.98%. The result for `Cc1ccc2nc(-c3ccc(NC(=O)c4ccccc4C(=O)O)cc3)sc2c1` reads 11.5%; that for `N#Cc1c(O)nc2c(c1-c1ccncc1)CCc1ccccc1-2`, -2.83%; that for `O=C(NCCC1=CCCCC1)C1CCC(CNc2c(N3CCCC3)c(=O)c2=O)CC1` (stereo not shown), -0.447%.

With `CC(=O)OCC12COC(C)C(C(C)=CC1C)C2C` (stereo not shown), the “% Inhibition @ 10 uM” value was 1.66%. The result for `O=C(O)c1[nH]c2ccccc2c1CC(=O)N1CCC(Cc2ccccc2)CC1` reads 13.5%; that for `O=C(c1ccc2nc(/C=C(\O)c3ccc(Cl)cc3)c(O)nc2c1)N1CCOCC1`, -9.95%. The result for `CCOCCCNC(=O)/C(C#N)=C/c1c(Oc2ccc(C(C)(C)C)cc2)nc2ccccn2c1=O` reads 7.65%; that for `O=C(COc1ccccc1)Nc1cnn(Cc2c(Cl)cccc2Cl)c1`, 10.6%; that for `Cc1cccc(OCC(=O)Nc2sc(Cc3ccccc3)c(C)c2C(N)=O)c1`, -3.43%. In the case of `CC(C)(C)c1cc(C=C2C(=O)NC(=O)NC2=O)cc(C(C)(C)C)c1O`, the “% Inhibition @ 10 uM” value was 3.47%. Consider `Cc1cccc2cc(C=O)c(SCC(=O)O)nc12`, for which the “% Inhibition @ 10 uM” value is recorded as -0.703%. Then `CCC1=C([N+](=O)[O-])C(c2ccc3c(c2)OCO3)NC(=O)N1` (stereo not shown), with 6.61%; and `N#C[C@H](CCCCNC(=O)OCc1ccccc1)NC(=O)[C@H](CC1CCCCC1)NC(=O)OCc1ccccc1`, with -8.26%; and `Cc1ccc(N(CC(=O)N2CCOCC2)S(C)(=O)=O)cc1Cl`, with 5.27%. Take `CCCC(=O)n1nc(C)c2c1CC(C)(C)CC2=O`: the “% Inhibition @ 10 uM” value was -0.902%. Then `Cc1oc(-c2ccc(C(=O)NCCC3=CCCCC3)cc2)nc1CS(=O)c1ccccc1` (stereo not shown), with 2.32%.

Take `CC1(C)CC(NC(=O)C(=O)NCCc2ccc(Cl)cc2)CC(C)(C)N1`: the “% Inhibition @ 10 uM” value is -0.13%. The result for `Cn1c(C(=O)NCc2ccccc2)cc2c(=O)n3ccccc3nc21` reads 3.72%. The result for `COc1ccc(Cl)cc1NC(=O)c1cnn2c1NC(c1cccs1)CC2C(F)(F)F` (stereo not shown) reads -6.41%; that for `O=C(Nc1ccccc1)c1cccnc1`, 1.21%. The result for `COc1ccc(C(=O)Nc2c3c(nn2-c2ccc(F)cc2)CSC3)cc1` reads 11.3%; that for `CC[C@H](NC(=O)[C@H](CC1CCCCC1)/N=C(\NS(C)(=O)=O)c1ccccc1)C(=O)c1nc2ccccc2o1`, 0.079%. On to `O=C(O)c1cc(-c2ccco2)nc2ccc(Br)cc12`, for which the “% Inhibition @ 10 uM” value was -1.63%. Regarding `O=c1cccc2n1C[C@H]1C[C@@H]2CN(Cc2c(F)cccc2Cl)C1`, the “% Inhibition @ 10 uM” value was determined as 1.8%. The result for `CCCC1=NN2C(=N)/C(=C/c3ccc(OC)c(OC)c3OC)C(=O)N=C2S1` reads -1.06%; that for `COc1ccc2c(CNCc3ccccc3Cl)c(C(=O)O)n(Cc3ccccc3C)c2c1`, -4.07%; that for `O=C1NC(=S)NC(=O)C1=Cc1ccccc1[N+](=O)[O-]`, 2.51%. Consider `COCC(=O)Nc1ccc(S(=O)(=O)N2CCC(C)CC2)cc1`, for which the “% Inhibition @ 10 uM” value is -1.63%.

As to `Cc1ccc(-n2nc(C)c3c(C(F)(F)F)cc(=O)n(CC(=O)N4CCCC4)c32)cc1`, the “% Inhibition @ 10 uM” value was -0.298%. The result for `O=C(O)c1ccc(CN2CC(=O)N3CCCCC3C2=O)cc1` (stereo not shown) reads 1.63%; that for `CCN(CC)S(=O)(=O)c1ccc(N2CCN(CCO)CC2)nc1`, -3.33%; that for `Cc1[nH]c2ccccc2c1CCCNC1CCCCC1`, -0.744%. The result for `CCn1c(C(=O)O)c(CNCc2ccc(OC)cc2)c2ccccc21` reads 5.09%.

For the molecule `O=C1N=C(N2CCOCC2)S/C1=C/c1ccc(-c2ccccc2Cl)o1`, the “% Inhibition @ 10 uM” value is recorded as -12.7%.

For `COc1cc(OC)cc(-c2cc(NC(C)=O)[nH]n2)c1`, the “% Inhibition @ 10 uM” value is -1.03%. Take `COc1cccc(-c2nc(Cn3c(=O)cc(C)c4c(C)nn(-c5cccc(F)c5)c43)c(C)o2)c1OC`: the “% Inhibition @ 10 uM” value was -5.79%. Then `CC(CCc1ccccc1)N1CCN(CCO)CC1` (stereo not shown), with -7.35%. With `CCC(C)[C@H](NC(=O)OCc1ccccc1)C(=O)N[C@@H](CC(C)C)C(=O)N[C@@H](C)C(=O)N[C@H](/C=C/S(C)(=O)=O)CC(C)C` (stereo partly shown), the “% Inhibition @ 10 uM” value amounted to 0.079%. In the case of `CC(CCc1ccccc1)N1CCN(c2cccc(Cl)c2)CC1` (stereo not shown), the “% Inhibition @ 10 uM” value was -5.44%. Then `CCOC(=O)C1=C(C)OC(N)=C(C#N)C1c1cccc(C)c1` (stereo not shown), with -0.261%.
